The values that follow come from the supplement of paper PMC3722116.

Compound in assay [1]: T1, CCN(CC)CCCC(C)Nc1ccnc2cc(Cl)ccc12 [chloroquine]
As for the experimental part:
(§1)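 Hypoxanthine uptake by fresh isolates, duplicate serial dilutions, 24 h of drug plus 18 h after the label; sigmoid fit per isolate.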

Compound in assay [2]: T2, C[C@H]1[C@H](OC(=O)CCC(=O)O)O[C@@H]2O[C@@]3(C)CC[C@H]4[C@H](C)CC[C@@H]1[C@@]24OO3 [artesunate]
On the procedure: as §1

Compound in assay [3]: T3, OC(c1cc(C(F)(F)F)nc2c(C(F)(F)F)cccc12)C1CCCCN1 [mefloquine]
As for the experimental part:
as §1

Compound in assay [4]: T1, chloroquine
Briefly: slope of the dose-response curve (dimensionless); higher = steeper concentration-effect curve. As for the experimental part: as §1

Compound in assay [5]: T2, artesunate
Described as above. On the procedure:
as §1

Compound in assay [6]: T3, mefloquine
The assay is described as above. On the procedure: as §1

Growth of fresh clinical P. falciparum isolates by hypoxanthine uptake over 42 h; for most isolates 1.6-1,647 nM mefloquine, 0.044-87 nM artesunate, 10-10,256 nM chloroquine, 2.4-236 nM lumefantrine. EC50, lower = more sensitive; slope from the same fit, higher = steeper. No active / inactive call. Fits with a coefficient of variation above 100% are not listed here; 15-28% of fits exceed 15%. Isolates are numbered anew.

Turning to “Plasmodium falciparum isolate 76 (pfmdr1 allele: 86N, 1042N, pfmdr1 copies: 3)”, the “EC50 of parasite growth” value is 0.0675 µg/mL with chloroquine [1], 0.00427 µg/mL in the assay with artesunate [2] and 0.064 µg/mL with mefloquine [3]. Further, the slope was found to be 3.37 with chloroquine [4], 7.57 with artesunate [5] and 4.05 with mefloquine [6].

As for “Plasmodium falciparum isolate 272 (pfmdr1 allele: 86N, 1042N, pfmdr1 copies: 2)”, the “EC50 of parasite growth” value with chloroquine [1] amounted to 0.0677 µg/mL; in the assay with artesunate [2], 0.00284 µg/mL; with mefloquine [3], 0.0427 µg/mL. Further, the slope is 2.48 with chloroquine [4], 1.35 in the assay with artesunate [5] and 2.87 with mefloquine [6].

In the case of “Plasmodium falciparum isolate 193 (pfmdr1 allele: 86N, 1042N, pfmdr1 copies: 2)”, the results for the “EC50 of parasite growth” value in the assay with chloroquine [1], with artesunate [2] and with mefloquine [3] were 0.149 µg/mL, 0.00193 µg/mL and 0.0758 µg/mL, respectively. The slope was found to be 5.07 with chloroquine [4], 8.9 with artesunate [5] and 4.67 with mefloquine [6].

In the case of “Plasmodium falciparum isolate 480 (pfmdr1 allele: 86N, 1042N, pfmdr1 copies: 1)”, the results for the “EC50 of parasite growth” value with chloroquine [1], in the assay with artesunate [2] and in the assay with mefloquine [3] were 0.198 µg/mL, 0.00205 µg/mL and 0.0425 µg/mL, respectively. In addition, the slope was found to be 4.13 in the assay with chloroquine [4], 5.63 in the assay with artesunate [5] and 1.54 with mefloquine [6].

“Plasmodium falciparum isolate 455 (pfmdr1 allele: 86N, 1042N, pfmdr1 copies: 1)”: the “EC50 of parasite growth” value in the assay with chloroquine [1] was determined as 0.206 µg/mL; with artesunate [2], 0.0021 µg/mL; in the assay with mefloquine [3] it was 0.0375 µg/mL. Besides, the slope in the assay with chloroquine [4] came out at 5.14; with artesunate [5], 3.67; with mefloquine [6], 1.72.

In the case of “Plasmodium falciparum isolate 338 (pfmdr1 allele: 86N, 1042N, pfmdr1 copies: 1)”, the entries for the “EC50 of parasite growth” value with chloroquine [1], with artesunate [2] and with mefloquine [3] were 0.117 µg/mL, 0.00066 µg/mL and 0.00669 µg/mL, respectively. The slope was found to be 5.05 in the assay with chloroquine [4], 2.9 in the assay with artesunate [5] and 1.67 in the assay with mefloquine [6].

Regarding “Plasmodium falciparum isolate 34 (pfmdr1 allele: 86N, 1042N, pfmdr1 copies: 1)”, the results for the “EC50 of parasite growth” value with chloroquine [1], with artesunate [2] and in the assay with mefloquine [3] were 0.179 µg/mL, 0.00209 µg/mL and 0.0689 µg/mL, respectively. Also, the figures for the slope with chloroquine [4], with artesunate [5] and with mefloquine [6] were 6.4, 5.88 and 9.98, respectively.

On to “Plasmodium falciparum isolate 435 (pfmdr1 allele: 86N, 1042N, pfmdr1 copies: 4)”, for which the “EC50 of parasite growth” value in the assay with chloroquine [1] worked out at 0.258 µg/mL; with artesunate [2] it was 0.00649 µg/mL; with mefloquine [3], 0.0729 µg/mL. For the same test system, the slope was determined as 1.9 with chloroquine [4], 1.62 with artesunate [5] and 2.21 with mefloquine [6].

As to “Plasmodium falciparum isolate 334 (pfmdr1 allele: 86N, 1042N, pfmdr1 copies: 3)”, the “EC50 of parasite growth” value with chloroquine [1] was 0.085 µg/mL; with artesunate [2], 0.00135 µg/mL; with mefloquine [3] it was 0.0657 µg/mL. Further, the slope is 2.52 with chloroquine [4], 4.5 with artesunate [5] and 2.13 with mefloquine [6].

With “Plasmodium falciparum isolate 462 (pfmdr1 allele: 86N, 1042N, pfmdr1 copies: 1)”, the “EC50 of parasite growth” value is 0.128 µg/mL in the assay with chloroquine [1] and 0.00211 µg/mL with artesunate [2]. The slope worked out at 4.03 with chloroquine [4] and 10 with artesunate [5].

Take “Plasmodium falciparum isolate 109 (pfmdr1 allele: 86N, 1042N, pfmdr1 copies: 2)”: the “EC50 of parasite growth” value with chloroquine [1] worked out at 0.0914 µg/mL; in the assay with artesunate [2] it was 0.000956 µg/mL. In addition, the slope in the assay with chloroquine [4] came out at 3.71; with artesunate [5], 7.25.

On to “Plasmodium falciparum isolate 371 (pfmdr1 allele: 86N, 1042N, pfmdr1 copies: 2)”, for which the entries for the “EC50 of parasite growth” value with chloroquine [1] and with artesunate [2] were 0.151 µg/mL and 0.00359 µg/mL, respectively. The values for the slope with chloroquine [4] and in the assay with artesunate [5] were 6.75 and 9.99, respectively.

As for “Plasmodium falciparum isolate 263 (pfmdr1 allele: 86N, 1042N, pfmdr1 copies: 2)”, the “EC50 of parasite growth” value in the assay with chloroquine [1] was 0.0234 µg/mL; with artesunate [2], 0.00136 µg/mL. The slope is 1.26 with chloroquine [4] and 1.37 with artesunate [5].

For the test system “Plasmodium falciparum isolate 15 (pfmdr1 allele: 86N, 1042N, pfmdr1 copies: 3)”, the entries for the “EC50 of parasite growth” value with chloroquine [1] and with artesunate [2] were 0.0343 µg/mL and 0.000652 µg/mL, respectively. Also, the slope in the assay with chloroquine [4] came to 1.22; with artesunate [5], 3.04.

With “Plasmodium falciparum isolate 405 (pfmdr1 allele: 86N, 1042N, pfmdr1 copies: 2)”, the “EC50 of parasite growth” value with chloroquine [1] was 0.241 µg/mL; with artesunate [2] it was 0.00368 µg/mL. Besides, the slope with chloroquine [4] came out at 3.79; in the assay with artesunate [5], 10.

Turning to “Plasmodium falciparum isolate 466 (pfmdr1 allele: 86Y, pfmdr1 copies: 1)”, the “EC50 of parasite growth” value with chloroquine [1] stood at 0.534 µg/mL; with mefloquine [3], 0.0217 µg/mL. For the same test system, the slope with chloroquine [4] was determined as 3.43; with mefloquine [6], 4.91.

On to “Plasmodium falciparum isolate 483 (pfmdr1 allele: 86N, 1042N, pfmdr1 copies: 2)”, for which the “EC50 of parasite growth” value with chloroquine [1] is 0.197 µg/mL; with artesunate [2], 0.00247 µg/mL. Besides, the slope with chloroquine [4] was 1.87; with artesunate [5], 10.9.

“Plasmodium falciparum isolate 230 (pfmdr1 allele: 86N, 1042N, pfmdr1 copies: 1)”: the “EC50 of parasite growth” value with chloroquine [1] was found to be 0.19 µg/mL; in the assay with artesunate [2], 0.00158 µg/mL. Also, the slope is 4.98 in the assay with chloroquine [4] and 5.38 with artesunate [5].

Consider “Plasmodium falciparum isolate 467 (pfmdr1 allele: 86N, 1042N, pfmdr1 copies: 2)”, for which the “EC50 of parasite growth” value worked out at 0.309 µg/mL with chloroquine [1] and 0.00145 µg/mL with artesunate [2]. Besides, the slope is 1.8 with chloroquine [4] and 0.731 in the assay with artesunate [5].

Regarding “Plasmodium falciparum isolate 113 (pfmdr1 allele: 86N, 1042N, pfmdr1 copies: 3)”, the results for the “EC50 of parasite growth” value with chloroquine [1] and with artesunate [2] were 0.0671 µg/mL and 0.000888 µg/mL, respectively. Moreover, the slope amounted to 1.25 with chloroquine [4] and 7.91 in the assay with artesunate [5].

In the case of “Plasmodium falciparum isolate 426 (pfmdr1 allele: 86N, 1042N, pfmdr1 copies: 3)”, the “EC50 of parasite growth” value in the assay with chloroquine [1] amounted to 0.164 µg/mL; with mefloquine [3], 0.0692 µg/mL. Also, the values for the slope in the assay with chloroquine [4] and with mefloquine [6] were 1.18 and 1.64, respectively.

For the test system “Plasmodium falciparum isolate 206 (pfmdr1 allele: 86N, 1042N, pfmdr1 copies: 3)”, the “EC50 of parasite growth” value with chloroquine [1] stood at 0.0676 µg/mL; in the assay with artesunate [2], 0.00315 µg/mL. Also, the slope was 5.89 with chloroquine [4] and 3.72 with artesunate [5].

“Plasmodium falciparum isolate 294 (pfmdr1 allele: 86N, 1042N, pfmdr1 copies: 3)”: the “EC50 of parasite growth” value stood at 0.0467 µg/mL with chloroquine [1] and 0.00695 µg/mL with mefloquine [3]. The results for the slope in the assay with chloroquine [4] and in the assay with mefloquine [6] were 2.77 and 3.89, respectively.

Consider “Plasmodium falciparum isolate 117 (pfmdr1 allele: 86N, 1042N, pfmdr1 copies: 3)”, for which the “EC50 of parasite growth” value with chloroquine [1] turned out to be 0.0822 µg/mL; with mefloquine [3], 0.123 µg/mL. For the same test system, the slope in the assay with chloroquine [4] was determined as 5.46; in the assay with mefloquine [6], 4.04.

Regarding “Plasmodium falciparum isolate 322 (pfmdr1 allele: 86N, 1042N, pfmdr1 copies: 2)”, the “EC50 of parasite growth” value worked out at 0.0707 µg/mL with chloroquine [1] and 0.000841 µg/mL with artesunate [2]. Moreover, the slope with chloroquine [4] amounted to 3.59; with artesunate [5], 1.89.

Turning to “Plasmodium falciparum isolate 415 (pfmdr1 allele: 86N, 1042N, pfmdr1 copies: 1)”, the figures for the “EC50 of parasite growth” value in the assay with chloroquine [1] and in the assay with mefloquine [3] were 0.194 µg/mL and 0.0414 µg/mL, respectively. Besides, the slope with chloroquine [4] came to 2.14; with mefloquine [6], 5.52.

In the case of “Plasmodium falciparum isolate 5 (pfmdr1 allele: 86N, 1042N, pfmdr1 copies: 1)”, the “EC50 of parasite growth” value worked out at 0.354 µg/mL with chloroquine [1] and 0.0874 µg/mL with mefloquine [3]. The results for the slope with chloroquine [4] and with mefloquine [6] were 9.98 and 2.47, respectively.

As for “Plasmodium falciparum isolate 97 (pfmdr1 allele: 86N, 1042N, pfmdr1 copies: 2)”, the “EC50 of parasite growth” value with chloroquine [1] is 0.104 µg/mL; in the assay with mefloquine [3], 0.0464 µg/mL. Moreover, the slope came to 4.64 in the assay with chloroquine [4] and 1.69 with mefloquine [6].
